Measured values reported in the supplement of paper PMC10037445.
“And” between values parts separate entries of the source, which are not always exact repeats. Equal entries are not always repeated. The full ranking holds about 2,900 compounds; the median of “IRF Lucia reporter activity, fold change vs agonist alone” is about 0.9, and the highest 2% start at about 2.8. Some of the results follow.

Key:
RAW-Dual [1] = experiment: IRF Lucia reporter activity, fold change vs agonist alone; cytotoxicity flag (confluency mask): not cytotoxic; higher = enhanced IRF activity
Procedure, shortened: (§1)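 Cytotoxic wells were those whose IncuCyte confluency was below 70% of agonist controls in both mask sets. The cells were RAW-Dual macrophages at 50,000 cells/well in DMEM on 384-well plates, dosed with 50 nL of library stock by pin tool, stimulated with a PRR agonist 1 h later, and kept at 37 °C, 5% CO2 for 20 hours. IRF and NF-κB reporter activity, as fold change over agonist-alone wells, came from supernatant read by QuantiLuc luminescence and QuantiBlue absorbance, respectively.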

RAW-Dual [2] = experiment: IRF Lucia reporter activity, fold change vs agonist alone; cytotoxicity flag (confluency mask): cytotoxic (confluency <70% of control); higher = enhanced IRF activity
Procedure, shortened: as §1

RAW-Dual [3] = experiment: IRF Lucia reporter activity, fold change vs agonist alone; higher = enhanced IRF activity; details: library stock concentration (final ~1000-fold dilution): 10 mM, agonist: MPLA (TLR4) […]
Procedure, shortened: as §1

[4] = agonist: 3'3'-cGAMP (STING) 10 ug/mL
[5] = cytotoxicity flag (confluency mask): not cytotoxic

**Q.** NC1(C(=O)NC(CCO)c2ccc(Cl)cc2)CCN(c2ncnc3[nH]ccc23)CC1 (stereo not drawn) (library stock concentration (final ~1000-fold dilution): 10 mM) was tested. Which “IRF Lucia reporter activity” value (RAW-Dual [1]; [4]) did it give?
**A.** Its value is 0.588.

**Q.** What about the “IRF Lucia reporter activity” value (RAW-Dual [1]; agonist: LPS (TLR4) 0.1 ug/mL) of the same compound?
**A.** The value was 0.888.

**Q.** Which results are given for Cc1cc(N=Nc2ccc3c(c2)CCC(=O)N3)c(N)cc1O (library stock concentration (final ~1000-fold dilution): 10 mM)?
**A.** IRF Lucia reporter activity (RAW-Dual [1]; [4]): 0.15; IRF Lucia reporter activity (RAW-Dual [1]; agonist: LPS (TLR4) 0.1 ug/mL): 0.146

**Q.** Which “IRF Lucia reporter activity” value (RAW-Dual [1]; [4]) does the source give for COC1(c2sc3c(N4CCOCC4)nc(-c4cnc(N)nc4)nc3c2C)COC1 (library stock concentration (final ~1000-fold dilution): 10 mM) here?
**A.** Its value is 0.61.

**Q.** What about the “IRF Lucia reporter activity” value (RAW-Dual [1]; agonist: LPS (TLR4) 0.1 ug/mL) of the same compound?
**A.** The value was 0.751.

**Q.** For COc1ccccc1OCCNCC(O)COc1cccc2[nH]c3ccccc3c12 (stereo not drawn) (library stock concentration (final ~1000-fold dilution): 10 mM), which “IRF Lucia reporter activity” value (RAW-Dual [1]; [4]) is on record?
**A.** The value was 0.689 and 0.629.

**Q.** And the “IRF Lucia reporter activity” value (RAW-Dual [1]; agonist: LPS (TLR4) 0.1 ug/mL)?
**A.** The value was 1.88 and 1.19.

**Q.** With COc1cc2c(cc1OC)-c1cc3nc4ccccc4nc3n1C(C)(C)C2 (library stock concentration (final ~1000-fold dilution): 10 mM) as the compound, how does the “IRF Lucia reporter activity” value (RAW-Dual [2]; [4]) read?
**A.** Its value is 0.239.

**Q.** What about the “IRF Lucia reporter activity” value (RAW-Dual [2]; agonist: LPS (TLR4) 0.1 ug/mL) of the same compound?
**A.** The value was 0.434.

**Q.** COc1cc2c(cc1OC)-c1cc3nc4ccccc4nc3n1C(C)(C)C2 was tested. Which “IRF Lucia reporter activity” value (RAW-Dual [3]; cytotoxicity flag (confluency mask): cytotoxic (confluency <70% of control)) did it give?
**A.** The value was 0.191.

**Q.** What does the source list for Oc1cc(O)c2c(c1)OC(c1ccc(O)c(O)c1)C(O)[C@H]2c1c(O)cc(O)c2c1OC(c1ccc(O)c(O)c1)C(O)C2 (stereo partly drawn) (library stock concentration (final ~1000-fold dilution): 10 mM)?
**A.** IRF Lucia reporter activity (RAW-Dual [1]; [4]): 0.867; IRF Lucia reporter activity (RAW-Dual [1]; agonist: LPS (TLR4) 0.1 ug/mL): 1.27

**Q.** Which “IRF Lucia reporter activity” value (RAW-Dual [3]; [5]) does the source give for Nc1cccc(-c2cc3c(Oc4cccc(O)c4)ncnc3[nH]2)c1 here?
**A.** The value was 0.0799.

**Q.** Which “IRF Lucia reporter activity” value (RAW-Dual [1]; [4]) does the source give for Nc1cccc(-c2cc3c(Oc4cccc(O)c4)ncnc3[nH]2)c1 (library stock concentration (final ~1000-fold dilution): 10 mM) here?
**A.** The value was 0.138.

**Q.** What about the “IRF Lucia reporter activity” value (RAW-Dual [1]; agonist: LPS (TLR4) 0.1 ug/mL) of the same compound?
**A.** Its value is 0.037.

**Q.** What does the source list for COc1ccc(-n2nc(C(N)=O)c3c2C(=O)N(c2ccc(N4CCCCC4=O)cc2)CC3)cc1 (library stock concentration (final ~1000-fold dilution): 10 mM)?
**A.** IRF Lucia reporter activity (RAW-Dual [1]; [4]): 1.03; IRF Lucia reporter activity (RAW-Dual [1]; agonist: LPS (TLR4) 0.1 ug/mL): 0.919

**Q.** How did the “IRF Lucia reporter activity” value (RAW-Dual [3]; [5]) turn out when COc1ccc(-n2nc(C(N)=O)c3c2C(=O)N(c2ccc(N4CCCCC4=O)cc2)CC3)cc1 was run?
**A.** The value was 0.925.

**Q.** With COc1ccc(C(C)=O)c(O)c1 as the compound, how does the “IRF Lucia reporter activity” value (RAW-Dual [3]; [5]) read?
**A.** The value was 0.954.

**Q.** Which “IRF Lucia reporter activity” value (RAW-Dual [1]; [4]) does the source give for COc1ccc(C(C)=O)c(O)c1 (library stock concentration (final ~1000-fold dilution): 10 mM) here?
**A.** The value was 0.95.

**Q.** And the “IRF Lucia reporter activity” value (RAW-Dual [1]; agonist: LPS (TLR4) 0.1 ug/mL)?
**A.** Its value is 1.02.

**Q.** COc1cc(OC)c(C=CS(=O)(=O)Cc2ccc(OC)c(NCC(=O)O)c2)c(OC)c1 (library stock concentration (final ~1000-fold dilution): 10 mM) was tested. Which “IRF Lucia reporter activity” value (RAW-Dual [1]; [4]) did it give?
**A.** Its value is 0.203.

**Q.** What about the “IRF Lucia reporter activity” value (RAW-Dual [1]; agonist: LPS (TLR4) 0.1 ug/mL) of the same compound?
**A.** Its value is 1.53.

**Q.** For COc1cc(OC)c(C=CS(=O)(=O)Cc2ccc(OC)c(NCC(=O)O)c2)c(OC)c1, which “IRF Lucia reporter activity” value (RAW-Dual [3]; [5]) is on record?
**A.** Its value is 1.79.

**Q.** For COC1CC2CCC(C)C(O)(O2)C(=O)C(=O)N2CCCCC2C(=O)OC(C(C)CC2CCC(OC(=O)C(C)(CO)CO)C(OC)C2)CC(=O)C(C)C=C(C)C(O)C(OC)C(=O)C(C)CC(C)C=CC=CC=C1C (stereo not drawn) (library stock concentration (final ~1000-fold dilution): 10 mM), which “IRF Lucia reporter activity” value (RAW-Dual [1]; [4]) is on record?
**A.** Its value is 0.69.

**Q.** And the “IRF Lucia reporter activity” value (RAW-Dual [1]; agonist: LPS (TLR4) 0.1 ug/mL)?
**A.** Its value is 2.98.

**Q.** COC1CC2CCC(C)C(O)(O2)C(=O)C(=O)N2CCCCC2C(=O)OC(C(C)CC2CCC(OC(=O)C(C)(CO)CO)C(OC)C2)CC(=O)C(C)C=C(C)C(O)C(OC)C(=O)C(C)CC(C)C=CC=CC=C1C (stereo not drawn) was tested. Which “IRF Lucia reporter activity” value (RAW-Dual [3]; [5]) did it give?
**A.** Its value is 4.11.
